# Assay results taken from PubChem BioAssay AID1745853 (National Center for Advancing Translational Sciences (NCATS), 2022).
# This is one part of the list. These are further read-outs of the screen, such as a control signal, another cell line or another target. No call is given for them.
# How the values were obtained:
# Assay in all cases: Primary Screen for Target Class Profiling of Small Molecule Inhibitors of Methyltransferases
# [1] = biological target: Glycine N-methyltransferase (Homo sapiens) (UniProt Q14749); details: purified enzyme, MTase-Glo SAH luminescence; measured here: GNMT inhibition; at 40 µM; stronger effect = lower value
# Summary of the method: (§1)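 Each enzyme was reacted with SAM and its substrate, with compounds tested once at 40 uM; SAH formed was read by MTase-Glo luminescence.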
# [2] = biological target: Guanidinoacetate N-methyltransferase (Homo sapiens) (UniProt Q14353); details: purified enzyme, MTase-Glo SAH luminescence; measured here: GAMT inhibition; at 40 µM; stronger effect = lower value
# Summary of the method: as §1
# [3] = biological target: Histamine N-methyltransferase (Homo sapiens) (UniProt P50135); details: purified enzyme, MTase-Glo SAH luminescence; measured here: HNMT inhibition; at 40 µM; stronger effect = lower value
# Summary of the method: as §1
# [4] = biological target: Nicotinamide N-methyltransferase (Homo sapiens) (UniProt P40261); details: purified enzyme, MTase-Glo SAH luminescence; measured here: NNMT inhibition; at 40 µM; stronger effect = lower value
# Summary of the method: as §1
# [5] = biological target: Phenylethanolamine N-methyltransferase (Homo sapiens) (UniProt P11086); details: purified enzyme, MTase-Glo SAH luminescence; measured here: PNMT inhibition; at 40 µM; stronger effect = lower value
# Summary of the method: as §1
# On the % scale 0 is the no-effect control and ±100 the full control effect.
structure (smiles),measurement,setting,value
Cc1cc2c(cc3n2CC(C)(C(=O)NC2CCCCC2)N(CCCc2ccccc2)C3=O)o1 (stereo not given),"activity change, negative = inhibition",[1],5.95%
same,"activity change, negative = inhibition",[2],8.33%
same,"activity change, negative = inhibition",[3],6.82%
same,"activity change, negative = inhibition",[4],2.9%
same,"activity change, negative = inhibition",[5],0.704%
COc1cncc([C@@H](NC(=O)CCc2c(C)noc2C)C2CC(O)C2)c1 (stereo not given in full),"activity change, negative = inhibition",[1],-3.1%
same,"activity change, negative = inhibition",[2],1.27%
same,"activity change, negative = inhibition",[3],1.27%
same,"activity change, negative = inhibition",[4],0.852%
same,"activity change, negative = inhibition",[5],15.4%
CC(C)n1c(=O)c2ccc(C(=O)NC3CCCC3)cc2n2c(=O)n(CC(=O)c3ccccc3)nc12,"activity change, negative = inhibition",[1],-4.72%
same,"activity change, negative = inhibition",[2],-12.2%
same,"activity change, negative = inhibition",[3],0.804%
same,"activity change, negative = inhibition",[4],-7.91%
same,"activity change, negative = inhibition",[5],-4.77%
O=C([C@@H]1C[C@H](F)CN1S(=O)(=O)Cc1ccccc1Cl)N1CCCCC1,"activity change, negative = inhibition",[1],-5.45%
same,"activity change, negative = inhibition",[2],-7.99%
same,"activity change, negative = inhibition",[3],-1.72%
same,"activity change, negative = inhibition",[4],-7.56%
same,"activity change, negative = inhibition",[5],-3.87%
CCCOc1ccc(CN2C(=O)c3cc4oc(C)cc4n3CC2(C)C(=O)NC2CCCCC2)cc1 (stereo not given),"activity change, negative = inhibition",[1],-0.519%
same,"activity change, negative = inhibition",[2],7.06%
same,"activity change, negative = inhibition",[3],0.904%
same,"activity change, negative = inhibition",[4],-9.3%
same,"activity change, negative = inhibition",[5],-1.28%
CNC(=O)c1ccc(CN2CC3(CCN(C(C)=O)CC3)CC2C(=O)O)o1 (stereo not given),"activity change, negative = inhibition",[1],-3.98%
same,"activity change, negative = inhibition",[2],-6.57%
same,"activity change, negative = inhibition",[3],-2.9%
same,"activity change, negative = inhibition",[4],-7.97%
same,"activity change, negative = inhibition",[5],-8.52%
CC(C)S(=O)(=O)NC[C@H](C)c1ccc(-c2ccc(CCNS(C)(=O)=O)cc2)cc1,"activity change, negative = inhibition",[1],-1.25%
same,"activity change, negative = inhibition",[2],0.995%
same,"activity change, negative = inhibition",[3],7.44%
same,"activity change, negative = inhibition",[4],-15.8%
same,"activity change, negative = inhibition",[5],-8.41%
O=C1CN(Cc2ccc(Cl)cc2)S(=O)(=O)c2ccccc2N1Cc1ccc(F)cc1,"activity change, negative = inhibition",[1],-3.92%
same,"activity change, negative = inhibition",[2],-5.71%
same,"activity change, negative = inhibition",[3],2.6%
same,"activity change, negative = inhibition",[4],-12.5%
same,"activity change, negative = inhibition",[5],-6.45%
C=C[C@H]1[C@H](O[C@@H]2O[C@H](CO)[C@@H](O)[C@H](O)[C@H]2O)OC=C(C(=O)OC)[C@H]1C[C@@H]1N[C@H](C(=O)O)Cc2c1[nH]c1ccccc21,"activity change, negative = inhibition",[1],0.999%
same,"activity change, negative = inhibition",[2],-7.51%
same,"activity change, negative = inhibition",[3],3.95%
same,"activity change, negative = inhibition",[4],-17.2%
same,"activity change, negative = inhibition",[5],-1.57%
O=C1NC2(CCN(C(=O)c3ccc4c(c3)OCO4)C2)Oc2ccccc21 (stereo not given),"activity change, negative = inhibition",[1],-6.36%
same,"activity change, negative = inhibition",[2],-7.21%
same,"activity change, negative = inhibition",[3],-3.83%
same,"activity change, negative = inhibition",[4],-11.7%
same,"activity change, negative = inhibition",[5],-6.72%
CC1CCN(S(=O)(=O)c2ccc3c(ccn3CC(=O)NCc3ccc(N(C)C)cc3)c2)CC1,"activity change, negative = inhibition",[1],5.99%
same,"activity change, negative = inhibition",[2],6.15%
same,"activity change, negative = inhibition",[3],-2.98%
same,"activity change, negative = inhibition",[4],-0.01%
same,"activity change, negative = inhibition",[5],0.887%
COc1ccc2c(Oc3ccc(NC(=O)c4c(C)n(CC(C)(C)O)n(-c5ccccc5)c4=O)cc3F)ccnc2c1,"activity change, negative = inhibition",[1],0.814%
same,"activity change, negative = inhibition",[2],-1.61%
same,"activity change, negative = inhibition",[3],-59.2%
same,"activity change, negative = inhibition",[4],-32%
same,"activity change, negative = inhibition",[5],2.81%
O=C(CCCN1CCC(O)(c2cccc(C(F)(F)F)c2)CC1)c1ccc(F)cc1,"activity change, negative = inhibition",[1],-1.32%
same,"activity change, negative = inhibition",[2],7.69%
same,"activity change, negative = inhibition",[3],2.83%
same,"activity change, negative = inhibition",[4],-8.99%
same,"activity change, negative = inhibition",[5],-5.65%
Cc1cccc(C(=O)N2CCCC(c3nnnn3-c3ccccc3)C2)c1 (stereo not given),"activity change, negative = inhibition",[1],-1.43%
same,"activity change, negative = inhibition",[2],-0.76%
same,"activity change, negative = inhibition",[3],-3.01%
same,"activity change, negative = inhibition",[4],-7.41%
same,"activity change, negative = inhibition",[5],-4.82%
COc1cccc(NC(=O)CCc2nnc3n(CCc4ccccc4)c(=O)c4ccccc4n23)c1,"activity change, negative = inhibition",[1],-0.435%
same,"activity change, negative = inhibition",[2],1.71%
same,"activity change, negative = inhibition",[3],6.81%
same,"activity change, negative = inhibition",[4],-0.699%
same,"activity change, negative = inhibition",[5],-0.875%
CC1CCCCC1NC(=O)C1(C)Cn2c(ccc2-c2ccco2)C(=O)N1CCCc1ccccc1 (stereo not given),"activity change, negative = inhibition",[1],-10.8%
same,"activity change, negative = inhibition",[2],4.14%
same,"activity change, negative = inhibition",[3],-5.47%
same,"activity change, negative = inhibition",[4],-10.9%
same,"activity change, negative = inhibition",[5],-3.84%
